# Results as given in the supplement of paper PMC3334620.
# In all, about 33,000 sequences were measured (“E-score (-0.5 to 0.5)”: median about -0.04, highest 2% from about 0.36 on). The list shows a part of the results.
# Biological target: T1, Hmlalpha2 (UniProt P0CY09)
# T1 sequence: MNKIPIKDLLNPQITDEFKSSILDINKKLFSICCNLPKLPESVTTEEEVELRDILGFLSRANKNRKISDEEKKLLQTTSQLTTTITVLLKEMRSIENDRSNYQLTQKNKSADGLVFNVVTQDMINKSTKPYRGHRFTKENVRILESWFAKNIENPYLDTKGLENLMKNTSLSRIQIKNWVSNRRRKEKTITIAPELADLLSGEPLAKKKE
# Experiment: PBM E-score (8-mer binding enrichment) (E-score (-0.5 to 0.5)); higher = stronger / more preferred TF binding; most listed sequences are background and not binding sites
# Conditions: protein concentration: 200 nM; construct: GST-full length
# Description: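 Universal 'all 10-mer' protein binding microarrays (Agilent AMADID 015681) probed with GST-tagged S. cerevisiae TFs (full-length or DBD) made by in vitro transcription/translation (PURExpress), about 100-200 nM. Bound TF was detected with fluorescent anti-GST. Each ungapped 8-mer (which stands for itself and its reverse complement) is scored by the PBM enrichment score (E-score), a modified Wilcoxon-Mann-Whitney statistic from -0.5 to +0.5, computed with the Universal PBM Analysis Suite. Scale: above 0.35 generally sequence-specific binding.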
row,Sequence,PBM E-score
1,TCACTAGA,-0.0174
2,CAGTAATG,0.167
3,CGTTATAC,0.252
4,ACACCCAC,0.044
5,CCTCGGCC,-0.237
6,CAAATAAG,0.0178
7,AGTAACTA,0.213
8,ATTAGATG,0.267
9,CATTCAAC,0.211
10,CATCCGGC,-0.302
11,TAAGGGAA,0.051
12,TTAAAGAA,0.11
13,GTGGTCCA,-0.14
14,GTGCATAA,0.121
15,ACCATGAA,0.0926
16,ACCAAACT,-0.0567
17,GCTTCCAC,-0.151
18,AGTTGGCC,-0.124
19,CGGGCGCC,-0.164
20,ATGCCAGA,-0.0916
21,AATTGAGG,-0.0022
22,GCCCAAGA,-0.23
23,AAGATCCT,-0.014
24,ATATATCA,-0.0343

row,Sequence,PBM E-score
1,ACCGCCTC,-0.149
2,CAGATTTA,0.0684
3,ACGGGACA,-0.252
4,AAGGCAAC,-0.00447
5,CTATTCAG,-0.0751
6,ACAGATCT,-0.0446
7,AAGGTCGC,-0.278
8,AGAGGGGC,-0.241
9,AATCACCC,-0.0662
10,GCTGTAAC,0.0767
11,AAAGATAC,-0.0716
12,GCTAGTCA,-0.169
13,GTGGTGTA,0.288
14,AGCGACTC,-0.119
15,AATAAATA,0.307
16,GGTGAAAA,0.0699
17,CGCAGAGA,-0.195
18,AGCTCCTG,-0.184
19,TGAGTTAA,0.139
20,AATAAAGG,-0.171
21,AGGGCACC,-0.242
22,CCCAAGAG,-0.203
23,AGAAGCCG,-0.23
24,GATCTCCC,-0.307

row,Sequence,PBM E-score
1,ACAACAAT,0.22
2,ATGCAGTC,-0.011
3,CACCCGAG,-0.263
4,AGCTATTC,-0.185
5,ACTTGGCT,-0.0523
6,CTAACAGA,0.00369
7,GGCGCTCA,-0.155
8,GGCGGCGA,-0.179
9,AGAGCATC,-0.221
10,TACGGCGA,-0.0117
11,GTACAATA,0.31
12,CCGAGTAC,0.00214
13,CCTATAAC,0.027
14,ATATATCG,0.0853
15,AAGTCGTA,0.0637
16,CAGACCTC,-0.145
17,GGGGGCAA,-0.346
18,ACTCCCTG,-0.167
19,AGTCAACA,0.269
20,CAGGGCAA,-0.0762
21,AACGTAAC,0.207
22,CATCAAGA,-0.0489
23,AAAAGTCT,-0.0887
24,TGAATACA,0.397

row,Sequence,PBM E-score
1,CAAAATAG,-0.151
2,AGCATGGA,-0.00786
3,AGCGACAG,-0.154
4,GAGTGGAA,-0.112
5,AGGGCCAA,-0.236
6,GCTATGAC,-0.165
7,AGCCAATC,-0.198
8,ACGTCAGC,0.114
9,CCGTCACG,-0.201
10,TCCGAGCA,0.0287
11,CCAAAGGC,-0.0627
12,ACCTAGCA,0.0501
13,GAAGGCAA,-0.213
14,AAGATATG,0.131
15,CGTAGTAA,0.203
16,AATCCAGG,-0.107
17,ACAGACGA,0.0861
18,AATGCGAT,0.0785
19,CACGTGAG,0.0837
20,GCCCGATA,-0.151
21,CCGCAAAG,-0.131
22,ACGGTTTC,-0.101
